In PubChem BioAssay (NCATS):
The shares of active, inactive and inconclusive entries below differ from those in the screen. For part of these data: Potencies of inconclusive entries are left out as doubtful fits. Active and inactive are the calls of the source. Calls come from the whole dose curve; as a rule, active = well fitted curve in the direction sought with a large enough effect; inconclusive = small, poorly fitted or top-dose-only effect, or another doubt; inactive = no such curve, though single readings can be large; an effect the other way counts as inactive or inconclusive.

Assays:
[1] = NS1 protein of Zika virus - qHTS assay to identify small molecule inhibitors in human HEK 293 cells (AID 1347053); note: potency is the fitted concentration of half-maximal effect; nearly all actives have a fitted effect of over 55% in size
Summary of the method: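 Read-out is a two-antibody TR-FRET for ZIKV NS1, normalized between uninfected cells and infected cells. Compound added 1 h before MR766 infection at MOI 0.5; human HEK 293 cells incubated 24 h, 37 C.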

[2] = qHTS assay to identify inhibitors of the type 1 interferon - major histocompatibility complex class I in skeletal muscle: Counter screen cell viability and HiBit confirmation (AID 1347412); conditions: iHSKM muscle cells + IFN-b, HiBiT or CellTiter-Glo, 24 h; for activity change, negative = inhibition: at 45.9 µM (top of the series); note: potency is the fitted concentration of half-maximal effect; for activity change, negative = inhibition: % is set by controls: 0 for no effect and ±100 for the full control effect; for all read-outs here: nearly all actives have a fitted effect of over 60% in size
Summary of the method: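 Duplicate plates, pinned identically: one read for HiBiT-tagged endogenous HLA-B luminescence, the other for ATP-content viability via CellTiter Glo. Cells were genome-engineered human myoblasts given 4 ng/ml IFN-b; compounds 12-pt, 1:3 from 46 uM final; 24 hr exposure.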

[3] = biological target: Luciferin 4-monooxygenase (Photinus pyralis) (UniProt P08659); test: Primary firefly luciferase (FLuc) qHTS assay for identification of artifact compounds. (AID 1845220); note: potency is the fitted concentration of half-maximal effect; nearly all actives have a fitted effect of over 60% in size
Summary of the method: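 D-luciferin and ATP (10 uM each, final) in Tris acetate buffer pH 7.6 were incubated with compounds for 15 min at room temperature. The reaction was started with 10 nM Photinus pyralis luciferase and luminescence read after 5 min. Percent inhibition was fitted to a 4-parameter Hill equation.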

[4] = biological target: Calcium and integrin-binding protein 1 (Homo sapiens) (UniProt Q99828); test: Primary qHTS for Identification of Calcium Integrin Binding Protein 1 (CIB1) Competitor (AID 1508620); note: potency is the fitted concentration of half-maximal effect;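 for activity change, negative = inhibition: GST tagged CIB1 binding a fluorescein labelled alphaIIb integrin peptide tracer; top concentration of the series differs between compounds; % is set by controls: 0 for no effect and ±100 for the full control effect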
UniProt Q99828, sequence (Q99828 whole entry, looked up): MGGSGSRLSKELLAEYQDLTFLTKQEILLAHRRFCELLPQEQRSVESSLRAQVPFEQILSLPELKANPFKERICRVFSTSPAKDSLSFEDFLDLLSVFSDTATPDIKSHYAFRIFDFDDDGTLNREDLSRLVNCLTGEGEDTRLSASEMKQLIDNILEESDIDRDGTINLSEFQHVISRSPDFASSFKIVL
Summary of the method: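 Fluorescence polarization competition: GST-tagged CIB1 (1 uM final) preincubated with compound 15 min at room temperature, then FITC-labelled alphaIIb peptide (100 nM final) added. After 15 min at room temperature, polarization read at Ex 480/Em 540.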

[5] = qHTS of pediatric cancer cell lines to identify multiple opportunities for drug repurposing: Primary screen for DAOY cells (AID 1347090); conditions: DAOY medulloblastoma viability, CellTiter-Glo luminescence, 48 h; activity change, negative = cytotoxic: at 46 µM (top of the series); note: potency is the fitted concentration of half-maximal effect; nearly all actives have a fitted effect of over 55% in size
Summary of the method: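 Viability measured as metabolically active cells via CellTiter-Glo luminescence following 48 hours of compound exposure, 11-point dilutions in confirmatory testing. 500-1,000 cells/well plated 5 hours before dosing; controls were DMSO and 2.3 µM bortezomib.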

[6] = qHTS of pediatric cancer cell lines to identify multiple opportunities for drug repurposing: Primary screen for SK-N-SH cells (AID 1347098); conditions: SK-N-SH viability, CellTiter-Glo luminescence, 48 h; activity change, negative = cytotoxic: at 57 µM (top of the series); note: potency is the fitted concentration of half-maximal effect; nearly all actives have a fitted effect of over 65% in size
Summary of the method: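 Cells (500-1,000/well) rested 5 h, then received compounds for 48 h; metabolically active cells were measured by CellTiter-Glo luminescence. Final concentrations spanned up to 46 µM (MIPE, 11-point) or 0.59 nM-46 µM (NPC, 8-point) in primary screens, 11-point in follow-ups.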

[7] = qHTS of pediatric cancer cell lines to identify multiple opportunities for drug repurposing: Primary screen for LAN-5 cells (AID 1347100); note: potency is the fitted concentration of half-maximal effect
Summary of the method: (§1)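 Viability after 48 h compound treatment at 37C, 500-1,000 cells/well, read as ATP luminescence with CellTiter-Glo. Primary screens used 11-point (MIPE, 0.78 nM-46 µM) or 8-point (NPC, 0.59 nM-46 µM) final concentrations; follow-up screens used 11-point dilutions.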

[8] = qHTS of pediatric cancer cell lines to identify multiple opportunities for drug repurposing: Primary screen for RD cells (AID 1347104); note: potency is the fitted concentration of half-maximal effect; nearly all actives have a fitted effect of over 55% in size
Summary of the method: (§2)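 Following a 5-hour attachment period, cells at 500-1,000/well received compounds and were cultured for 48 hours. CellTiter-Glo was added and luminescence read to estimate viable, metabolically active cells.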

[9] = test system: MKL-2; test: qHTS assay to identify novel small-molecules to repurpose for Merkel cell carcinoma treatment (AID 1296009); conditions: MCC and control cell lines, CellTiter-Glo viability, 72 h; activity change, negative = cytotoxicity: at 46 µM (top of the series); note: potency is the fitted concentration of half-maximal effect; nearly all actives have a fitted effect of over 60% in size
Summary of the method: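 CellTiter-Glo luminescence after 72 hr compound exposure at 37 degree celsius gave cell viability. Libraries NPC and MIPE were run as 8- and 11-point dose responses; RLUs normalized to DMSO (negative) and no-cell (cytotoxicity) controls.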

[10] = biological target: Phospholipid hydroperoxide glutathione peroxidase GPX4 (Homo sapiens) (UniProt P36969); test: Primary qHTS Assay for Inhibitors of Recombinant Selenoprotein Glutathione Peroxidase 4 (GPX4) (AID 1845192); note: nearly all actives have a fitted effect of over 65% in size; note: potency is the fitted concentration of half-maximal effect; for activity change, negative = inhibition: % is set by controls: 0 for no effect and ±100 for the full control effect
UniProt P36969, sequence (P36969 whole entry, looked up): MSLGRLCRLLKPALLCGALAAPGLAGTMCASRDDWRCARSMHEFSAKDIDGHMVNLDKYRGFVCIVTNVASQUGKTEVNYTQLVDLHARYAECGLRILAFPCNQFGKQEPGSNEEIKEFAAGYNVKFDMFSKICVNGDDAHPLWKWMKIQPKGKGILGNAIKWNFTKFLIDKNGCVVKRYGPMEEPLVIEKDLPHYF
Summary of the method: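 Steps: GPX4 plus compound, 30 min RT; add GR/GSH/NADPH master mix; start with cumene hydroperoxide; read 340/450 nm fluorescence at 0 and 15 min. Finals were 200 nM GPX4, 1 mM GSH, 0.5 mM CHP, 0.5 mM NADPH, 100 nM GR.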

[11] = biological target: Glutathione peroxidase 1 (Homo sapiens) (UniProt P07203); test: Primary qHTS Assay for Inhibitors of Recombinant Selenoprotein Glutathione Peroxidase 1 (GPX1) (AID 1845191); conditions: activity, negative = inhibition: at 48.8 µM (top of the series); note: nearly all actives have a fitted effect of over 65% in size; note: potency is the fitted concentration of half-maximal effect
UniProt P07203, sequence (P07203 whole entry, looked up): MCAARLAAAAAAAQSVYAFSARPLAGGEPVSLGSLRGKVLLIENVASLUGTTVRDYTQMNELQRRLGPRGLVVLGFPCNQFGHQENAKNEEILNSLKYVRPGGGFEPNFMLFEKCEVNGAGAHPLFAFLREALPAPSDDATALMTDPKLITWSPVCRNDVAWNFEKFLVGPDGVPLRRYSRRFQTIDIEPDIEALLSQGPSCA
Summary of the method: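 GR-coupled readout: NADPH consumption tracked by fluorescence, ex 340/em 450 nm, at t=0 and after 15 min at RT. Final mix 10 nM GPX1, 1 mM GSH, 0.5 mM CHP, 0.5 mM NADPH, 100 nM GR, 0.01% BSA, following 30 min enzyme–compound preincubation.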

[12] = qHTS of pediatric cancer cell lines to identify multiple opportunities for drug repurposing: Primary screen for Rh30 cells (AID 1347107); note: potency is the fitted concentration of half-maximal effect; nearly all actives have a fitted effect of over 75% in size
Summary of the method: as §1

[13] = qHTS of pediatric cancer cell lines to identify multiple opportunities for drug repurposing: Primary screen for Rh41 cells (AID 1347108); note: potency is the fitted concentration of half-maximal effect; nearly all actives have a fitted effect of over 70% in size
Summary of the method: as §2

[14] = test system: Zika virus NS2B-NS3 protease; test: Primary screen GU AMC qHTS for Zika virus inhibitors (AID 1347154); note: potency is the fitted concentration of half-maximal effect; nearly all actives have a fitted effect of over 70% in size
Summary of the method: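 Unlinked Zika NS2B hydrophilic domain–NS3 protease complex at 25 nM in 10 mM Tris-HCl pH 8.0, 0.01% Tween 20, with an AMC peptide substrate. Fluorescence change (340/450 nm) over 15 min at room temperature, normalized to controls, fitted to 4-parameter Hill.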

[15] = qHTS to identify inhibitors of the type 1 interferon - major histocompatibility complex class I in skeletal muscle: primary screen against the NCATS Mechanism Interrogation Plate v5.0 (MIPE) Libary (AID 1347411); conditions: iHSKM cells + IFN-b, HiBiT-tagged MHC-I luminescence, 24 h; activity change, negative = inhibition: at 45.8 µM (top of the series); note: potency is the fitted concentration of half-maximal effect; nearly all actives have a fitted effect of over 65% in size
Summary of the method: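 IFN-beta-driven (4 ng/ml) HLA-B-HiBit expression in CRISPR-tagged C25cl48 myoblasts; compounds 11-pt, 1:3, max 46 uM, 24 hr exposure; lytic NanoLuc complementation luminescence.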

[16] = Quantitative High-Throughput drug screen in 47 multiple myeloma cell lines against the NCATS MIPE library collection: JIM1_ECACC cell viability assay (AID 1918964)
Summary of the method: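 We plated 500 myeloma cells per well, pinned in MIPE 4.0 compounds, and incubated for 48 hours at 37C. ATP was then quantified with CellTiter-Glo, with DMSO and media-only wells defining 100% and 0%.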

[17] = qHTS of pediatric cancer cell lines to identify multiple opportunities for drug repurposing: Primary screen for TC32 cells (AID 1347089); note: nearly all actives have a fitted effect of over 60% in size; note: potency is the fitted concentration of half-maximal effect; for activity change, negative = cytotoxic: % is set by controls: 0 for no effect and ±100 for the full control effect
Summary of the method: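 In the primary qHTS, MIPE compounds were tested at 11 concentrations (0.78 nM to 46 µM) and NPC compounds at 8 (0.59 nM to 46 µM) on TC32 cells for 48 h. CellTiter-Glo luminescence gave viability.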

[18] = qHTS of pediatric cancer cell lines to identify multiple opportunities for drug repurposing: Confirmatory screen for Rh30 cells (AID 1347126); conditions: Rh30 rhabdomyosarcoma cell viability; activity change, negative = cytotoxic: at 45.9 µM (top of the series); note: potency is the fitted concentration of half-maximal effect; nearly all actives have a fitted effect of over 55% in size
Summary of the method: as §1

[19] = Drug repurposing screens with cells derived from glioblastoma tumor samples (AID 1345199); conditions: GBM patient neurospheres viability, ATP luminescence, 48 h; Potency: tumour line A unless noted; activity, negative = cell killing: at 46 µM (top of the series), tumour line A unless noted; note: potency is the fitted concentration of half-maximal effect; nearly all actives have a fitted effect of over 40% in size
Summary of the method: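 Primary testing used CD133+ neurospheres from four GBM patients, seven concentrations, 48 h exposure and ATP-based viability; confirmation added three slower-growing patient lines.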

[20] = qHTS of pediatric cancer cell lines to identify multiple opportunities for drug repurposing: Primary screen for U-2 OS cells (AID 1347096); note: potency is the fitted concentration of half-maximal effect; nearly all actives have a fitted effect of over 50% in size
Summary of the method: as §1
Tags give direction and shape of the fitted curve.

Q: For `COC(=O)C1=C(C)NC(C)=C(C(=O)OC)C1c1cccc(NC(=O)NCCCN2CCC(c3cccc(OC)c3)CC2)c1`, which Potency [1] is on record?
A: inconclusive [inhibitor, single point]

Q: And the activity change, negative = inhibition ([2]; HiBiT)?
A: inactive: -3.18%

Q: With `C/C=C/C=C/C=C/C(=O)O[C@@H]1[C@@H](OC)C2=C(C(=O)N(C(CCC(=O)O)C(=O)O)C2)[C@@]2(C)CCCC(C)(C)[C@H]12` (stereo partly specified) as the compound, how does the Potency [3] read?
A: inconclusive [inhibitor, single point]

Q: For `C=C1CC[C@@H]2[C@](C)(CO)[C@H](O)CC[C@@]2(C)[C@@H]1C/C=C1/C(=O)OC[C@@H]1O`, which Potency [4] is on record?
A: inactive

Q: Which results are given for `N/C(=N\N=C\c1ccc(Cl)cc1)N/N=C/c1ccc(Cl)cc1`?
A: Potency [5]: inconclusive [cytotoxic, single point]; Potency [6]: inconclusive [cytotoxic, partial curve, poor fit]; Potency [7]: inconclusive [cytotoxic, single point]; Potency [8]: inconclusive [cytotoxic, single point]; Potency [9]: inconclusive [inhibitor, partial curve]

Q: What does the source list for `c1ccc(-c2ccc(CNc3nc(-c4ccccn4)nnc3-c3ccccc3)cc2)cc1`?
A: Potency ([2]; HiBiT): inconclusive [inhibitor, partial curve, poor fit]; Potency ([2]; Viability): inconclusive [cytotoxic, partial curve]

Q: Which Potency [4] does the source give for `C/C=C/C=C/c1cc2c(C=O)c(O)c(CC=C(C)C)cc2o1` here?
A: inconclusive [inhibitor, partial curve, poor fit]

Q: And the Potency [10]?
A: inconclusive [inhibitor, partial curve]

Q: What about the Potency [3] of the same compound?
A: inconclusive [inhibitor, partial curve]

Q: For `CNC1CN(c2ccc3c(=O)c(C(=O)O)cn(-c4nccs4)c3n2)CC1OC` (stereo unspecified), which Potency [4] is on record?
A: inactive

Q: Which Potency [11] does the source give for `CN1CCC(NC(=O)c2cc(-c3c(O)cc(O)cc3Oc3ccc([N+](=O)[O-])cc3)on2)CC1` here?
A: inconclusive [inhibitor, partial curve]

Q: What does the source list for `Cc1ccc(S(=O)(=O)Cc2nc(-c3ccc(C(=O)NCc4cccnc4)cc3)oc2C)cc1`?
A: Potency [11]: inconclusive [inhibitor, single point]; Potency [10]: inconclusive [inhibitor, single point]

Q: Which Potency [4] does the source give for `CN(C)CCCCCCNC(=O)c1cccc(-c2cc(O)c3ncccc3c2)c1` here?
A: inconclusive [inhibitor, full curve]

Q: For `Cc1cc(-c2nc(-c3ccc(OC(F)(F)F)cc3)no2)nn1Cc1ccnc(N2CCN(C3CC3)CC2)c1`, which Potency [10] is on record?
A: inactive

Q: Which Potency [8] does the source give for `OCc1ccc(-c2ccc(-c3ccc(CO)s3)o2)s1` here?
A: inconclusive [cytotoxic, single point]

Q: And the Potency [12]?
A: active: 16.6 µM

Q: And the Potency [13]?
A: active: 7.43 µM

Q: And the Potency [14]?
A: active: 26.7 µM

Q: What about the Potency [15] of the same compound?
A: active: 33 µM

Q: And the Potency [4]?
A: inconclusive [inhibitor, single point]

Q: And the Potency [11]?
A: inconclusive [inhibitor, single point]

Q: What about the Potency [10] of the same compound?
A: inconclusive [inhibitor, partial curve]

Q: What about the Potency [3] of the same compound?
A: active: 1.31 µM

Q: And the Potency [16]?
A: inactive

Q: And the Potency [9]?
A: inconclusive [inhibitor, partial curve, poor fit]

Q: For `CC(C)(C)c1nc2c3cc[nH]c(=O)c3c3cc(F)ccc3c2[nH]1`, which Potency [17] is on record?
A: inconclusive [cytotoxic, single point]

Q: And the Potency [5]?
A: inconclusive [cytotoxic, single point]

Q: What about the Potency [8] of the same compound?
A: inconclusive [cytotoxic, full curve]

Q: What about the Potency [15] of the same compound?
A: inconclusive [inhibitor, full curve]

Q: And the Potency [16]?
A: inactive

Q: Which results are given for `CC(=O)[C@@]1(O)CC[C@H]2[C@@H]3C[C@H](C)C4=CC(=O)CC[C@]4(C)[C@H]3CC[C@@]21C`?
A: Potency [7]: inconclusive [cytotoxic, single point]; Potency [18]: active: 0.414 µM; Potency [9]: inconclusive [inhibitor, partial curve, poor fit]; Potency [19]: inconclusive [inhibitor, partial curve]; activity change, negative = inhibition ([2]; HiBiT): inactive: -17.9%

Q: Which Potency [17] does the source give for `O=C(c1cc(O)c(O)c(O)c1)c1ccc(O)c(O)c1O` here?
A: inactive

Q: And the Potency [20]?
A: inconclusive [cytotoxic, partial curve, poor fit]

Q: And the Potency [6]?
A: inconclusive [cytotoxic, partial curve]

Q: What about the Potency [7] of the same compound?
A: inconclusive [cytotoxic, single point]

Q: What about the Potency [14] of the same compound?
A: active: 0.891 µM

Q: What about the Potency [4] of the same compound?
A: inconclusive [inhibitor, partial curve]

Q: Which Potency [8] does the source give for `O=C(CCC1CCN(Cc2ccccc2)CC1)c1ccc2c(c1)NCCCC2` here?
A: inconclusive [cytotoxic, single point]

Q: What about the Potency [11] of the same compound?
A: inactive

Q: What about the Potency [9] of the same compound?
A: inconclusive [inhibitor, single point]

Q: With `COc1c(C(O)CC(C)C)ccc2c1C(=O)OCc1cc(C)cc(O)c1O2` (stereo unspecified) as the compound, how does the Potency [4] read?
A: inactive
